Results: patent US20240091372A1, “ANTI-DOPPEL ANTIBODY DRUG CONJUGATES” (SEOUL NATIONAL UNIVERSITY R&DB FOUNDATION, priority 2022, published 2024)

B1: 3H9-KGDEVD-MMAE: MMAE linked to anti-doppel human mAb 3H9 by caspase-cleavable peptide linker Lys-Gly-Asp-Glu-Val-Asp (conjugate)
heavy: EVQLVESGGGLVQPGGSLRLSCAASGFTFSSYAMSWVRQAPGKGLEWVSGISGSGSRTDYADSVKGRFTISRDNSKNTLYLQMNSLRAEDTAVYYCAKVYTYTRGFAFDLWGQGTLVTVSS[letters of human IgG1 constant region left out]
light: DIQMTQSPSSLSASVGDRVTITCRASQSISNYLNWYQQKPGKAPKLLIYAASTLQSGVPSRFSGSGSGTDFTLTISSLQPEDFATYYCQQSYSFPYTFGQGTKVEIKRTVAAPSVFIFPPSDEQLKSGTASVVCLLNNFYPREAKVQWKVDNALQSGNSQESVTEQDSKDSTYSLSSTLTLSKADYEKHKVYACEVTHQGLSSPVTKSFNRGEC
B2: 3H9-vc-MMAE: ADC of MMAE, mAb 3H9 and a cathepsin B-cleavable Val-Cit linker (conjugate)
heavy: B1 heavy
light: B1 light
modifications: non-natural residues
notes: ADC of MMAE, mAb 3H9 and a cathepsin B-cleavable Val-Cit linker
B3: 3H9 mAb: anti-doppel human monoclonal antibody 3H9, heavy chain SEQ ID NO:15, light chain SEQ ID NO:43 (antibody)
heavy: B1 heavy
light: B1 light

Assays:
HCT116 xenograft tumor = test: In vivo efficacy in HCT116 xenograft tumor model; parameters: species or system balb-c/nu mice; settings: for tumor growth suppression, ADCs with different linkers: HCT116 xenograft, FIG. 6
Procedure: To assess the anti-tumor efficacy of anti-doppel ADCs, an HCT116 xenograft tumor model was used. HCT116 cells (1×10^^7 cells/mouse) were inoculated into the left flank of balb-c/nu mice. When the average tumor volume reach 70-100 mm^3, ADC was administered intravenously every 4 days for a total of 4 times. Tumor volume was measured every 4 days until the end of the experiments.

HCT116 cells = test: Cytotoxicity assay on doppel-expressing cell line HCT116; assay type: cell-based; settings: HCT116, 72 hours, FIG. 1
Procedure: The ability of anti-doppel ADCs as described herein to deliver a potent cytotoxic drug and eliminate doppel-expressing cells was assessed.
A cell line expressing doppel, HCT116, was selected and cultured with increasing concentrations of ADC. After 72 hours, viability of each culture was assessed. IC50 values were calculated by logistic non-linear regression and reported as nM. […] (FIG. 1)

Molecule | tumor growth suppression, ADCs with different linkers (HCT116 xenograft tumor) | tumor growth suppression (KGDEVD-MMAE ADCs) (HCT116 xenograft tumor; same tumor model, FIG. 7) | growth inhibition of doppel expressing cell line (HCT116) (HCT116 cells) | dose-dependency of anti-tumor effect (HCT116 xenograft tumor; same tumor model and procedure, FIG. 5)
B1 | effectively suppressed tumor growth | effectively suppressed tumor growth | inhibited growth | –
B2 | effectively suppressed tumor growth | – | inhibited growth | dose-dependent effect
B3 | – | – | did not | –
